Data reported in PubChem BioAssay AID686978 (National Center for Advancing Translational Sciences (NCATS), 2013).
In all, about 420,000 compounds went through this assay and about 64,000 (15%) were called active. Inconclusive results, whose numbers are uncertain, are shown with a selection of clear calls. Calls follow the shape of the dose curve; as a rule, active = well fitted inhibition curve with a large enough effect; inconclusive = small, poorly fitted or top-dose-only effect; inactive = flat fitted curve, though single readings scatter. No potency is given beside an inconclusive call; the fits are too rough.

Assay: qHTS for Inhibitors of human tyrosyl-DNA phosphodiesterase 1 (TDP1): qHTS in cells in absence of CPT; also: nearly all actives have a fitted effect of over 55% in size
Settings: DT40 Tdp1-/- hTDP1 cells, no CPT, ATP luminescence, 48 h; series mostly up to 46.2 µM
Outline: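 Stably hTDP1-transfected Tdp1-null chicken DT40 cells were treated with library compounds minus camptothecin and grown for at least 48 hr at 37 °C, after which cellular ATP was quantified by luminescence.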
Potency is read from the fitted curve at half-maximal effect; tags tell the direction and shape of the fitted curve.

SMILES | Potency
O=C(CSC1=NS(=O)(=O)c2cc(F)ccc2N1)NCc1ccccc1Cl | inactive
CC(C)C(=O)Nc1c2c(nn1-c1ccc(F)cc1)CS(=O)(=O)C2 | inactive
C(=NNC1=NCCN1)c1ccnc2ccccc12 | inconclusive [inhibitor, partial curve]
O=C(CCc1ccccc1O)N/N=C/c1ccc(Sc2cccc3cccnc23)o1 | inconclusive [inhibitor, single point]
Cc1noc(C)c1C(=O)N1CCC2(CCCN(C(=O)Nc3ccccc3)C2)CC1 | inactive
COc1ccc(OC(=O)c2ccc(Cl)cc2)c(C(C)=O)c1 | inactive
CC(C)COc1ccc(C(=O)Nc2ccc(NC(=O)c3ccco3)cc2)cc1 | inconclusive [inhibitor, partial curve, poor fit]
N=c1c(S(=O)(=O)c2ccccc2)cc2c(=O)n3ccccc3nc2n1CC1CCCO1 (stereo not given) | inconclusive [inhibitor, partial curve]
O=C(NCCc1ccccc1)c1ccc(-c2ccc(F)cc2)o1 | inactive
COCCN1C(=O)CN(S(C)(=O)=O)CC1(C)C(=O)NC(C)C (stereo not given) | inactive
C=CCOc1ccc(/C(O)=C2/C(=O)C(=O)N(CCCN3CCOCC3)C2c2ccccc2)cc1 (stereo not given) | inconclusive [inhibitor, single point]
CC(=O)Nc1ccc(NC(=O)C(C)OC(=O)c2oc3ccccc3c2C)cc1 (stereo not given) | inconclusive [inhibitor, single point]
CCCCc1c(C)c(C#N)c2nc3ccccc3n2c1NCCN(C)C | inconclusive [inhibitor, single point]
CN(/C(=N\S(=O)(=O)c1ccccc1)c1ccccc1)c1ccc(O)cc1 | inconclusive [inhibitor, single point]
O=C(Cn1ccc(NC(=O)OCc2ccccc2)nc1=O)NCCCN1CCCC1=O | inactive
CN(C)S(=O)(=O)c1cccc(NC(=O)CSc2nnnn2-c2ccccc2)c1 | active: 23.1 µM
COC(=O)[C@]12CCCCC=C1N(Cc1ccccc1)C(=O)[C@H](CC(=O)NCCCN1CCCC1=O)C2 | inactive
CCOC(=O)c1nnn(-c2nonc2-n2cccc2)c1CN1CCCCC1 | inconclusive [inhibitor, single point]
CCOc1ccc(NC(=O)N2CCC(n3nnc4cc(C)ccc43)CC2)cc1 | inconclusive [inhibitor, partial curve]
OC(C#CCN1CCCC1)(c1ccccc1)c1cccc(F)c1 (stereo not given) | inconclusive [inhibitor, single point]
CCOC(=O)c1sc(=S)n(-c2cc(F)ccc2F)c1N | inactive
CCc1cc2c(SCC(=O)c3cccs3)ncnc2s1 | inconclusive [inhibitor, single point]
O=[N+]([O-])c1cccc(-c2ccc(C(=S)N3CCOCC3)o2)c1 | inconclusive [inhibitor, single point]

SMILES | Potency
Cc1cccc(C)c1-n1ncc(C(=O)N2CCN(c3ncccn3)CC2)c1C1CCN(C(=O)OC(C)(C)C)CC1 | inconclusive [inhibitor, single point]
CCOC(=O)CC1COc2ccccc2N1C(=O)c1ccc(F)cc1 (stereo not given) | inconclusive [inhibitor, single point]
O=C(NCCn1cc(SCc2ccccc2F)c2ccccc21)c1c(F)cccc1F | active: 23.1 µM
O=C(Nc1cccc([N+](=O)[O-])c1)c1cccc(C(=O)Nc2cccc([N+](=O)[O-])c2)c1 | active: 7.31 µM
Cc1cccc(NC(=O)C2CCN(S(=O)(=O)c3ccc4c(c3)CCCN4C(=O)C3CCC3)CC2)c1 | inconclusive [inhibitor, single point]
CCc1cc(C(=O)N/N=C/c2ccc(O)cc2O)c2ccccc2n1 | inconclusive [inhibitor, partial curve]
N#C/C(=C\c1c[nH]c2ccc(Br)cc12)c1ccccn1 | active: 20.6 µM
COCCCn1c(=O)c2sccc2n2c(CCCC(=O)NC3CCC(C)CC3)nnc12 (stereo not given) | inconclusive [inhibitor, single point]
O=C(NN=C(c1ccccc1)c1ccccc1)C(CCl)C1CCCCC1 (stereo not given) | inactive
CN(C(=O)c1cccc(S(=O)(=O)N2CCCC2)c1)C1CCCCC1 | inconclusive [inhibitor, partial curve]
COc1ccc(Nc2cc(C)nc3ccc(C)cc23)cc1 | active: 16.4 µM
COc1ccc(NC(=O)CSc2cn(CCNC(=O)c3c(F)cccc3F)c3ccccc23)cc1 | inconclusive [inhibitor, single point]
O=C(Nc1cccc(Cl)c1)N1CCSc2cc(Cl)ccc21 | inconclusive [inhibitor, single point]
c1ccc(CCc2nc3ccccc3[nH]2)cc1 | inconclusive [inhibitor, partial curve]
CC(C)NC(=S)N1CCC(Cc2ccccc2)CC1 | inconclusive [inhibitor, partial curve]
COc1cc(NC(=O)CSc2nc(-c3ccc(C(C)C)cc3)no2)cc(OC)c1 | inconclusive [inhibitor, partial curve]
CN1CCN(C(=O)C(C(=O)c2ccc(F)cc2)n2ccccc2=O)CC1 (stereo not given) | inactive
CC[C@H](C)Cc1cn([C@@H](CCCCNC(=O)OC(C)(C)C)C(=O)NCCCCCCCCCCC(=O)N2CCN(C(=O)OC(C)(C)C)CC2)nn1 | active: 16.4 µM
Cc1occc1-c1nnc(SCC(=O)N2CCc3ccccc32)o1 | active: 20.6 µM
O=C(NCCc1ccc(C(F)(F)F)cc1)C1CCC(=O)N(CCCc2ccccc2)C1 (stereo not given) | inconclusive [inhibitor, single point]
Cc1ccc(S(=O)(=O)n2ccc(-c3ccc(OCc4c(F)cccc4Cl)cc3)n2)cc1 | inconclusive [inhibitor, single point]
Cc1ccc2[nH]c(=O)c(CN(CC3CCCO3)C(=S)NCc3ccco3)cc2c1 (stereo not given) | active: 20.6 µM
